{"source": "PubChem BioAssay AID588579", "about": "(National Center for Advancing Translational Sciences (NCATS), 2011)", "note": "Screen size: about 400,000 compounds; about 2,200 (0.55%) were called active. The shares of active, inactive and inconclusive entries below differ from those in the screen. The call rests on the fitted dose curve; in most records, active means well fitted inhibition curve with a large enough effect; inconclusive means small, poorly fitted or top-dose-only effect, or another doubt; inactive means no such curve, though single readings can be large or run the other way. Potencies beside an inconclusive call are fits to weak or partial responses and may not hold up. On the % scale 0 is the no-effect control and ±100 the full control effect; potency means the concentration at half of the fitted maximal effect; tags describe the fitted curve by direction and shape.", "data": [{"target": "DNA polymerase kappa (Homo sapiens) (UniProt Q9UBT6)", "sequence (Q9UBT6 whole entry, looked up)": "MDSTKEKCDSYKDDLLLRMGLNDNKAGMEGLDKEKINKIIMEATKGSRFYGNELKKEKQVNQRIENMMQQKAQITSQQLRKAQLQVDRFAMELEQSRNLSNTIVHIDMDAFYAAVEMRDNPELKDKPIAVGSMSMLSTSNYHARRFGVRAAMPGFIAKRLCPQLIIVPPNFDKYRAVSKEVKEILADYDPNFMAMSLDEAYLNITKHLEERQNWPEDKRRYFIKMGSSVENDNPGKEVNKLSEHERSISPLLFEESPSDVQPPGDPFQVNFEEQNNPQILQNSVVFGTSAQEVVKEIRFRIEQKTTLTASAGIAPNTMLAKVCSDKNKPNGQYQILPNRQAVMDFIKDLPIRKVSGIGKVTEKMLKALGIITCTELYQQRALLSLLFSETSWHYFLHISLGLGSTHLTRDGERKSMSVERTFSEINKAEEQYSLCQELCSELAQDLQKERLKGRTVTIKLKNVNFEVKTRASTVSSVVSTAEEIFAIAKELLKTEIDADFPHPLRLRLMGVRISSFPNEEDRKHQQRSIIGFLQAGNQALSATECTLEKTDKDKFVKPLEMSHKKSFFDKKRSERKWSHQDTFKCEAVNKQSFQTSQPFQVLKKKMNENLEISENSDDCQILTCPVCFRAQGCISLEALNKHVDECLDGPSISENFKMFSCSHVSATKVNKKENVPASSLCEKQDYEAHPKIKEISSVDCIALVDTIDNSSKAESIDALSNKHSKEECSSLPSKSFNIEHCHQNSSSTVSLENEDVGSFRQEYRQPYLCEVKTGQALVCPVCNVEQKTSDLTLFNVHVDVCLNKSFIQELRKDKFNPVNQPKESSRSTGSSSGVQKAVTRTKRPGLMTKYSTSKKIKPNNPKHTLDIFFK", "test": "qHTS for Inhibitors of Polymerase Kappa", "details": "purified Pol kappa, fluorescent DNA synthesis assay, 10 min; series mostly up to 107 µM; activity, negative = inhibition: at the top concentration", "outline": "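First, compounds were pin-transferred onto 10 nM Pol kappa. After 15 min at room temperature, substrate was added to 50 nM final. Fluorescence was then measured kinetically at 0 and 10 min.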", "values": [{"smiles": "CC(=O)Oc1cccc(C(=O)O)c1OC(C)=O", "activity, negative = inhibition": "inactive: 4.84% [at 19.4 µM]"}, {"smiles": "Cc1sc2ncnc(SCC(=O)NC(=O)NCc3ccco3)c2c1C", "Potency": "inconclusive: 89.1 µM [inhibitor, single point]"}, {"smiles": "COc1ccc(C2=Nn3c(nnc3-c3ccccc3F)SC2)cc1OCC1CC1", "Potency": "inconclusive: 44.7 µM [inhibitor, partial curve]"}, {"smiles": "O=C(O)c1ccc(/C=N/NC(=O)c2ccc(Br)cc2)cc1", "Potency": "inconclusive: 89.1 µM [inhibitor, partial curve, poor fit]"}, {"smiles": "O=C(NCc1n[nH]c(=S)n1-c1ccc(Br)cc1)c1ccc(S(=O)(=O)N2CCOCC2)cc1", "activity, negative = inhibition": "inactive: 3.74%"}, {"smiles": "NC(N)=N/N=C/c1ccccc1", "activity, negative = inhibition": "inactive: -6.26%"}, {"smiles": "COc1cc(C2C3=C(Nc4nc(N)[nH]c(=O)c42)c2ccccc2C3=O)ccc1O", "note": "(centres undefined)", "Potency": "active: 89.1 µM"}, {"smiles": "Cc1ccccc1NC(=O)/C(C#N)=C/c1ccc(-c2ccc(Cl)c(C(=O)O)c2)o1", "Potency": "inconclusive: 89.1 µM [inhibitor, single point]"}, {"smiles": "COC/C=C/C1=CC2=CC(=O)C(C)(OC(=O)C3CCCC3)C(=O)C2=CO1", "note": "(centres undefined)", "Potency": "active: 50.1 µM"}, {"smiles": "CN1CCN(c2ncc3nc(-c4ccc(F)cc4)c(=O)n(Cc4cccs4)c3n2)CC1", "activity, negative = inhibition": "inactive: 5.56% [at 60.1 µM]"}, {"smiles": "O=C(O)c1cc(N/N=C/c2c[nH]c3ccccc23)ccc1Cl", "Potency": "inconclusive: 79.4 µM [inhibitor, partial curve, poor fit]"}, {"smiles": "Cc1cccc(CNc2cc(-c3ccoc3)ncn2)c1", "Potency": "inconclusive: 25.1 µM [inhibitor, partial curve, poor fit]"}, {"smiles": "CCCOc1ccc(/C=c2\\sc3nc(-c4ccco4)nn3c2=O)cc1OCC", "Potency": "inconclusive: 79.4 µM [inhibitor, partial curve, poor fit]"}, {"smiles": "COc1ccc(CCNC(=O)CSCc2nc(-c3cccc(C)c3)oc2C)cc1OC", "activity, negative = inhibition": "inactive: -7.21%"}, {"smiles": "COC(=O)/C(=C1\\OC(=O)C(c2ccccc2)C1=O)c1ccccc1", "note": "(centres undefined)", "Potency": "inconclusive: 44.7 µM [inhibitor, partial curve, poor fit]"}, {"smiles": "Cc1ccc(SC[C@H](C)CN2CC[C@H](O)CCC2=O)cc1", "activity, negative = inhibition": "inactive: -5.28%"}, {"smiles": "COc1cc2c(cc1OC)-c1c(oc3cc(O)cc(O)c3c1=O)CO2", "Potency": "active: 31.6 µM"}, {"smiles": "CCOC(=O)N1CCN(C(=O)c2ccc(Cl)nc2)CC1", "activity, negative = inhibition": "inactive: -2.94%"}, {"smiles": "COCCN(C(=O)c1cc(-c2ccco2)nc2ccccc12)c1c(N)n(Cc2ccccc2)c(=O)[nH]c1=O", "Potency": "inconclusive: 56.2 µM [inhibitor, partial curve, poor fit]"}, {"smiles": "O=C(Nc1nc(-c2ccco2)c(-c2ccco2)s1)C1CC(=O)N(c2ccc3c(c2)OCCO3)C1", "note": "(centres undefined)", "Potency": "active: 20 µM"}, {"smiles": "Cc1ccc(CNC(=O)c2c[nH]n3c(=O)c(Cc4ccc(F)cc4Cl)c(C)nc23)cc1", "Potency": "inconclusive: 89.1 µM [inhibitor, partial curve, poor fit]"}, {"smiles": "COc1ccc(N2Cc3cccc(C(=O)Nc4cccc(F)c4)c3C2=O)cc1", "Potency": "inconclusive: 89.1 µM [inhibitor, single point]"}, {"smiles": "CCOC(=O)c1sc(N2C(=O)C(O)=C(C(=O)c3ccco3)C2c2ccco2)nc1C", "note": "(centres undefined)", "Potency": "inconclusive: 100 µM [inhibitor, single point]"}, {"smiles": "OC(CON=C1c2ccccc2-c2ccccc21)CN1CCNCC1", "note": "(centres undefined)", "Potency": "inconclusive: 100 µM [inhibitor, single point]"}, {"smiles": "O=C(O)c1cnn(-c2ccccc2)c1-c1ccncc1", "Potency": "inconclusive: 89.1 µM [inhibitor, single point]"}, {"smiles": "CCn1nc(-c2ccccc2)c(-c2ccccc2)c(C(=O)Nc2nc(C)c(C(C)=O)s2)c1=O", "activity, negative = inhibition": "inactive: 2.96%"}, {"smiles": "O=C(O)C1=C(C(=O)O)C2C=CC1C2", "Potency": "inconclusive: 89.1 µM [inhibitor, single point]"}, {"smiles": "COc1ccc(-c2nc3cnc(N4CCNCC4)nc3n(Cc3cccs3)c2=O)cc1", "Potency": "inconclusive: 31.6 µM [inhibitor, partial curve]"}, {"smiles": "COc1ccc(CCNC(=O)C2CCN(S(=O)(=O)c3cccc4cccnc34)CC2)cc1OC", "Potency": "inconclusive: 89.1 µM [inhibitor, single point]"}, {"smiles": "Cc1ccc(/C=N/NC(=O)c2cc3ccccc3cc2O)o1", "Potency": "inconclusive: 79.4 µM [inhibitor, partial curve, poor fit]"}, {"smiles": "CC(Oc1ccc(Cl)cc1)C(=O)/C=C/N(C)C", "note": "(centres undefined)", "Potency": "inconclusive: 89.1 µM [inhibitor, partial curve, poor fit]"}, {"smiles": "COc1cc(OC)cc(C(=O)NCC(=O)OCC(=O)NCc2ccco2)c1", "Potency": "inconclusive: 89.1 µM [inhibitor, partial curve, poor fit]"}, {"smiles": "Cc1nc2c(OCc3ccccc3)cccn2c1CC#N", "Potency": "inconclusive: 6.7 µM [inhibitor, single point]"}, {"smiles": "CCCCCCCCCCCCCCCCC(C(=O)O)C(O)(CC(=O)O)C(=O)O", "note": "(centres undefined)", "Potency": "inconclusive: 15.8 µM [inhibitor, single point]"}, {"smiles": "Cc1ccc(NC(=O)CCc2nc3sc4c(c3c(=O)[nH]2)CCCC4)c(Br)c1", "Potency": "inconclusive: 89.1 µM [inhibitor, partial curve, poor fit]"}, {"smiles": "Cc1cc2cc(CNC(=O)c3ccc(Br)o3)ccc2n1C", "Potency": "inconclusive: 79.4 µM [inhibitor, partial curve, poor fit]"}, {"smiles": "Nc1ccc(C(=O)N(CCO)CCO)cc1", "activity, negative = inhibition": "inactive: -9.4%"}, {"smiles": "O=C1CSC(=S)N1N=Cc1ccccc1O", "Potency": "inconclusive: 79.4 µM [inhibitor, single point]"}, {"smiles": "O=C(COC(=O)c1ccc(O)cc1O)NC1CCCCCC1", "Potency": "inconclusive: 79.4 µM [inhibitor, partial curve, poor fit]"}, {"smiles": "O=C(COC(=O)/C=C/c1cccc(F)c1)Nc1ncccn1", "Potency": "inconclusive: 31.6 µM [inhibitor, partial curve]"}, {"smiles": "COc1ccc(C(=O)NNc2ncnc3c2cnn3-c2cccc(Cl)c2)cc1OC", "activity, negative = inhibition": "inactive: -4.21% [at 60.1 µM]"}, {"smiles": "FC(F)(F)c1ccccc1-c1nc(NCc2cccs2)c2ccccc2n1", "Potency": "inconclusive: 39.8 µM [inhibitor, single point]"}, {"smiles": "CC(=O)c1c(C)[nH]c(C(=O)OC(C)C(=O)Nc2ccc(C)c(S(=O)(=O)N3CCOCC3)c2)c1C", "note": "(centres undefined)", "activity, negative = inhibition": "inactive: -2.47%"}, {"smiles": "O=C(O)Cc1ccc(C(=O)CSc2ccccc2)s1", "Potency": "inconclusive: 22.4 µM [inhibitor, full curve]"}, {"smiles": "COCCN1C(=O)CS/C1=C(/C#N)C(=O)NCc1ccco1", "Potency": "inconclusive: 89.1 µM [inhibitor, single point]"}, {"smiles": "CC(C)=CCc1c(O)cc2occ(-c3ccc4c(c3)OCO4)c(=O)c2c1O", "Potency": "inconclusive: 11.2 µM [inhibitor, partial curve, poor fit]"}, {"smiles": "OCCCn1c(CCNc2nc(-c3ccc(F)cc3)cs2)nc2cc(C(F)(F)F)ccc21", "activity, negative = inhibition": "inactive: 3.59%"}, {"smiles": "NC(=O)C1CCN(C(=O)c2ccc(OCC(=O)Nc3cccc(C(F)(F)F)c3)cc2)CC1", "activity, negative = inhibition": "inactive: -14.2%"}, {"smiles": "O=C(/C=C/c1ccc(-c2ccccc2[N+](=O)[O-])o1)c1ccco1", "Potency": "inconclusive: 89.1 µM [inhibitor, partial curve, poor fit]"}, {"smiles": "O=C1c2ccccc2-c2n[nH]c3cccc1c23", "Potency": "inconclusive: 10 µM [inhibitor, partial curve]"}, {"smiles": "COc1ccccc1-c1ccc(/C=C2\\C=CC(=O)O2)o1", "Potency": "active: 35.5 µM"}, {"smiles": "Cc1cccc(NC(=O)CSc2nc(N)c(NC(=O)c3cccs3)c(=O)[nH]2)c1C", "activity, negative = inhibition": "inactive: -9.46%"}, {"smiles": "Cc1ccc(-n2ncc(C(=O)NCCc3ccsc3)c2C2CCN(C(=O)OC(C)(C)C)CC2)cc1C", "activity, negative = inhibition": "inactive: -8.05%"}, {"smiles": "CCNc1nc(NCC)n2c(SCC(=O)Nc3ccccc3C(F)(F)F)nnc2n1", "Potency": "inconclusive: 100 µM [inhibitor, single point]"}, {"smiles": "CC(=O)Oc1ccc2c(=O)c(Oc3ccccc3)c(C)oc2c1OC(C)=O", "Potency": "inconclusive: 44.7 µM [inhibitor, partial curve]"}, {"smiles": "O=c1cc(C(O)C[N+](=O)[O-])occ1OCc1ccccc1", "note": "(centres undefined)", "Potency": "inconclusive: 100 µM [inhibitor, single point]"}, {"smiles": "Nc1cccc2c(O)cc(S(=O)(=O)O)cc12", "Potency": "active: 8.91 µM"}, {"smiles": "COc1ccccc1CNC(=O)N1CCN(c2ccccc2Cl)CC1", "Potency": "inconclusive: 89.1 µM [inhibitor, single point]"}, {"smiles": "CCc1ccc(CNC(=O)c2cccc(-n3cnc4cccnc43)c2C)cc1", "activity, negative = inhibition": "inactive: -0.5%"}, {"smiles": "C[C@@H]1C(c2ccccc2)=NN(c2ccc(Br)cc2)[C@H]1C(=O)N1CCOC1=O", "Potency": "inconclusive: 50.1 µM [inhibitor, partial curve, poor fit]"}, {"smiles": "N#C/C(=C/c1cn(Cc2ccc(F)cc2)c2ccccc12)C(=O)Nc1cccc(Cl)c1", "Potency": "inconclusive: 89.1 µM [inhibitor, single point]"}, {"smiles": "O=C(CC1c2ccccc2Oc2ccccc21)Nc1ccccc1C(F)(F)F", "activity, negative = inhibition": "inactive: -5.59%"}, {"smiles": "CC1CCN(Cc2c(O)ccc3c2O/C(=C\\c2ccco2)C3=O)CC1", "Potency": "inconclusive: 79.4 µM [inhibitor, single point]"}, {"smiles": "Cn1c(=O)c2cc(C(=O)N3CCN(c4ccc(Cl)cc4)CC3)sc2c2ccccc21", "activity, negative = inhibition": "inactive: -3.82%"}, {"smiles": "Cc1cccc(NC(=O)C2CCCN(S(=O)(=O)c3cnc[nH]3)C2)c1C", "note": "(centres undefined)", "activity, negative = inhibition": "inactive: -22.2%"}, {"smiles": "Cc1ccc(S(=O)(=O)Nc2nc3n(n2)C(c2ccc(F)cc2)C=C(c2ccccc2)N3)cc1", "note": "(centres undefined)", "activity, negative = inhibition": "inactive: 3.34%"}, {"smiles": "Nc1c(N2CCCC2)cc(Cl)c2nonc12", "Potency": "inconclusive: 89.1 µM [inhibitor, single point]"}, {"smiles": "O=C(c1csnn1)N1CCC2(CCN(Cc3cc(C(F)(F)F)cc(C(F)(F)F)c3)CC2)CC1", "Potency": "inconclusive: 28.2 µM [inhibitor, partial curve, poor fit]"}, {"smiles": "O=C1S/C(=C/c2ccc(N3CCOCC3)o2)C(=O)N1Cc1ccc(F)cc1", "activity, negative = inhibition": "inactive: -23.2%"}]}]}
